Test results from publication PMC3630055, “Bovine HEXIM1 inhibits bovine immunodeficiency virus replication through regulating BTat-mediated transactivation” (Veterinary Research, 2013).
Results are given in words; binding and its absence hold for the method and conditions named. In cells and extracts the contact can be indirect. Some binding calls cover weakened binding; strength is not graded here. Where a sequence is shown, tags or fusion partners need not be part of it. One block for each molecule: values may come before it.

Protein sequences, listed by entry. Tags and fused reporters are not part of them. Residues count along the entry.
UniProt Q6T8E9, residues 1-272: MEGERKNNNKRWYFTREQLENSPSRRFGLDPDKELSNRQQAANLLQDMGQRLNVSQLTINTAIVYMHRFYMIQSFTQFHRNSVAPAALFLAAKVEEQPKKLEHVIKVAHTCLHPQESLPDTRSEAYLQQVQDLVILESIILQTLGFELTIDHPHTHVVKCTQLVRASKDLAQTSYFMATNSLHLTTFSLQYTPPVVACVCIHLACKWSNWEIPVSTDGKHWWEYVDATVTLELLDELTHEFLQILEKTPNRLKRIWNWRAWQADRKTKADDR

Columns and labels:
Assay in all cases: co-IP; 293 T cells co-transfected with HA-BHEXIM1 (or truncations) and Flag-B-cyclin T1; lysis in 50 mM Tris-HCl pH 8.0, 150 mM NaCl, 1% NP-40; immunoprecipitation with anti-HA (or, reciprocally, anti-Flag) at 4°C, immunoblot for the other tag
[1] = biological target: T1, HA-BHEXIM1 (bovine hexamethylene bisacetamide (HMBA)-induced protein 1), 1-320 aa (full-length) (bovine) (UniProt Q0X0C4)
T1 sequence: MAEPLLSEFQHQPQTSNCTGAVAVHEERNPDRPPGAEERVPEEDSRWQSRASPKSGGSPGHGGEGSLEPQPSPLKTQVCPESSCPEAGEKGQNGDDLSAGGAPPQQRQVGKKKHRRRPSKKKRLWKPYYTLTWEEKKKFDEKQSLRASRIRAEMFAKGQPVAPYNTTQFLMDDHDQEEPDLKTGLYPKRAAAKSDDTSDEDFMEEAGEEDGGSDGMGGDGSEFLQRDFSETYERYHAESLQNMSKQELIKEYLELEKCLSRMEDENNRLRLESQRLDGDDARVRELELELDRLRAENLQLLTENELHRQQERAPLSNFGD

[2] = biological target: T2, HA-BHEXIM1 1-140 (bovine) (UniProt Q0X0C4)
T2 sequence: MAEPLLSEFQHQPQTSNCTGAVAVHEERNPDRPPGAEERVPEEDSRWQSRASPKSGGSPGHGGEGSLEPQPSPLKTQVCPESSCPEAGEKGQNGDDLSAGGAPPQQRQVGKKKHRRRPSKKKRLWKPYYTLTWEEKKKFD

[3] = biological target: T3, HA-BHEXIM1 104-320 (bovine) (UniProt Q0X0C4)
T3 sequence: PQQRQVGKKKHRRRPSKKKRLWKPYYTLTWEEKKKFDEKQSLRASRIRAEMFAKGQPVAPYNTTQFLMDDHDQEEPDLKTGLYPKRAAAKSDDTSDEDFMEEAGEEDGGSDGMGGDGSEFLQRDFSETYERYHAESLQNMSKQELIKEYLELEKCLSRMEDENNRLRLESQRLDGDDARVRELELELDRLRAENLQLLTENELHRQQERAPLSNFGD

[4] = biological target: T4, HA-BHEXIM1 Δ(108-140) (bovine) (UniProt Q0X0C4)
T4 sequence: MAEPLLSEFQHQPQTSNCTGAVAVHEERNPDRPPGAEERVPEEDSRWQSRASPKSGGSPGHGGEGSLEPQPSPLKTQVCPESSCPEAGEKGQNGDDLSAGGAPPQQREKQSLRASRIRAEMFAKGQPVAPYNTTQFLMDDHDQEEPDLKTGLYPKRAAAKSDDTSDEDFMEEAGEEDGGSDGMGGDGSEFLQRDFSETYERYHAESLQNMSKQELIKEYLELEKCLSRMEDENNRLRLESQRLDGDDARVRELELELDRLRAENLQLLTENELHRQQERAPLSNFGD

[5] = biological target: Flag-B-cyclin T1 (aa residues 1-272 of bovine cyclin T1) (bovine) (UniProt Q6T8E9)

- binding [1]: binds
- binding [2]: no binding
- binding [3]: binds
- binding [4]: no binding
Molecule: Flag-B-cyclin T1 (aa residues 1-272 of bovine cyclin T1) (from UniProt Q6T8E9 1-272) (domain or fragment)

- binding [5]: binds
B1: HA-BHEXIM1 (bovine hexamethylene bisacetamide (HMBA)-induced protein 1), 1-320 aa (full-length) (protein, UniProt Q0X0C4 1-320)
chain: T1 sequence
